Measured values taken from the supplement of paper PMC10670038.
Counter-ions that a name gives are not always drawn. ± gives the standard deviation of the averaged measurements. In all, about 2,000 compounds were measured (“relative cell viability vs DMSO, compound alone”: median about 1.1, lowest 2% from about 0.29 on). The list shows a part of the results.

Tested on: TE10
Assay: relative cell viability vs DMSO, compound alone (fraction); TE10 is an esophageal squamous carcinoma line; higher = less cytotoxic
Conditions: 2 µM; 48 h
Experimental: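 TE10 ESCC cells (1,000/well, 384-well plates) were treated with Selleck bioactive library compounds at 2 uM alone for 48 h. Viability was read by CellTiter-Glo and expressed relative to DMSO wells. Two technical replicates (A, B).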

Compound	relative cell viability
C=CCc1cc(OC)c(O)c(C(=O)NCCO)c1 [Alibendol]	0.894 ± 0.033
CCOc1cn(-c2ccc(F)cc2C)nc1C(=O)Nc1ccc(Oc2ccnc3cc(OC)c(OC)cc23)c(F)c1	1.06 ± 0.061
C#C[C@]1(O)CC[C@H]2[C@@H]3CCC4=CC(=O)CC[C@@H]4[C@H]3CC[C@@]21C [Norethindrone]	1.15 ± 0.076
C#C[C@]1(OC(C)=O)CC[C@H]2[C@@H]3CCC4=C[C@@H](OC(C)=O)CC[C@@H]4[C@H]3CC[C@@]21C [Ethynodiol diacetate]	1.1324 ± 0.00089
CC(C)[C@H](C(=O)Nc1ccc(C(=O)NO)cc1)c1ccccc1	0.221 ± 0.015
Nc1ccc(S(=O)(=O)Nc2ncccn2)cc1 [Sulfadiazine]	0.961 ± 0.083
CCCC(C)NC(=O)c1ccc(Cl)c(Cl)c1 (centres undefined)	1.162 ± 0.004
CNC1CCC(N(Cc2cccc(-c3ccncc3)c2)C(=O)c2sc3ccccc3c2Cl)CC1 (centres undefined) [Smoothened Agonist (SAG) HCl]	1.135 ± 0.0013
Nc1ccc(O)c(C(=O)O)c1 [Mesalamine]	1.02 ± 0.024
COC(=O)N1CCN(Cc2cccc(NC(=O)Nc3ccc(C)nc3)c2F)CC1	1.04 ± 0.047
O=C(O)CSc1cc(NS(=O)(=O)c2ccc(Br)cc2)c2ccccc2c1O	0.967 ± 0.24
CN(C)CCCN1c2ccccc2CCc2ccc(Cl)cc21 [Clomipramine HCl]	1.02 ± 0.031
COC(=O)C1=C(C)NC(C)=C(C(=O)OC)C1c1ccccc1[N+](=O)[O-] [Nifedipine]	1.05 ± 0.045
NC(=O)c1cccc2[nH]c(-c3ccc(C4CCCN4)cc3F)nc12 (centres undefined)	0.9172 ± 0.0024
CC(C)NC[C@H](O)COc1ccc(CCOCC2CC2)cc1 [Levobetaxolol HCl]	0.768 ± 0.035
COc1cc2c(cc1O)CC[C@@H]1[C@@H]2CC[C@]2(C)[C@@H](O)CC[C@@H]12 [2-Methoxyestradiol (2-MeOE2)]	0.582 ± 0.21
COc1cc(N2CCN(C)CC2)ccc1Nc1nccc(-c2cn(C)c3cnccc23)n1	1.1305 ± 0.0005
C[C@@H](c1ncncc1F)[C@](O)(Cn1cncn1)c1ccc(F)cc1F [Voriconazole]	1.01 ± 0.22
Cc1c(NC(=O)c2ccc(C(C)(C)C)cc2)cccc1-c1cn(C)c(=O)c(Nc2ccc(C(=O)N3CCOCC3)cc2)n1	1.09 ± 0.095
O=C(O)Cc1ccccc1Nc1c(Cl)cccc1Cl [Diclofenac Sodium]	1.13 ± 0.045
O=C(O)Cc1ccccc1Nc1c(Cl)cccc1Cl [Diclofenac Diethylamine]	1.07 ± 0.038
O=C(O)Cc1ccccc1Nc1c(Cl)cccc1Cl [Diclofenac Potassium]	0.908 ± 0.26
C[C@@H]1CC(=O)NN=C1c1ccc(NN=C(C#N)C#N)cc1 [Levosimendan]	0.843 ± 0.16
CN(C)CCCNC(=O)c1ccc(-c2cc(O)c3ncccc3c2)cc1	1.06 ± 0.079
N=c1ccn2c(n1)O[C@H]1[C@H](O)[C@@H](CO)O[C@H]12 [Cyclocytidine HCl]	0.964 ± 0.024
CNC(=O)c1ccc2cc([C@@]3(O)CCn4cncc43)ccc2c1 [TAK-700 (Orteronel)]	1.21 ± 0.024
CC(=O)Oc1cc(C(F)(F)F)ccc1C(=O)O [Triflusal]	0.869 ± 0.1

Compound	relative cell viability
Cc1cncc(CN2CCC(=C3c4ccc(Cl)cc4CCc4cccnc43)CC2)c1 [Rupatadine Fumarate]	0.992 ± 0.029
CS(=O)(=O)c1ccc([C@@H](O)[C@@H](CO)NC(=O)C(Cl)Cl)cc1 [Thiamphenicol]	1.27 ± 0.053
C[C@]12C=CC(=O)C=C1CC[C@@H]1[C@@H]2[C@@H](O)C[C@@]2(C)[C@H]1CC[C@]2(O)C(=O)CO [Prednisolone]	0.997 ± 0.037
O=c1ncn2nc(Sc3ccc(F)cc3F)ccc2c1-c1c(Cl)cccc1Cl	1.21 ± 0.017
O=c1[nH]cc(F)c(=O)[nH]1 [Fluorouracil (5-Fluoracil, 5-FU)]	1.07 ± 0.022
CCn1c(=O)c(-c2ccc(-c3cncs3)cc2Cl)cc2cnc(Nc3ccc(N4CCN(C)CC4)cc3)nc21	0.98 ± 0.023
Cc1cnc(Nc2ccc(N3CCN(C)CC3)cc2)nc1Nc1cccc(S(=O)(=O)NC(C)(C)C)c1	0.8501 ± 0.00098
O=C1NC(=O)/C(=C/c2ccc(-c3ccc(F)cc3O)o2)S1	0.958 ± 0.04
CC(C)CCN1c2nc(Nc3cc(F)c(O)c(F)c3)ncc2N(C)C(=O)C1C (centres undefined)	0.987 ± 0.015
NC1(c2ccc(-c3nc4ccn5c(=O)[nH]nc5c4cc3-c3ccccc3)cc2)CCC1	0.91 ± 0.015
CC[C@@]1(O)C(=O)OCc2c1cc1n(c2=O)Cc2cc3cc(O)ccc3nc2-1 [(S)-10-Hydroxycamptothecin]	0.451 ± 0.041
Cc1cccc(-c2[nH]c(C(C)(C)C)nc2-c2ccc3nccnc3c2)n1	1.33 ± 0.027
CN1CCN(CCCNc2ncc(Cl)c(-c3cc4c(C(=O)NC5CC5)cccc4s3)n2)CC1	0.99 ± 0.023
NC(=O)c1noc([C@H](CCCC2CCCCC2)CC(=O)NO)n1	1.04 ± 0.035
CCOc1ccn(-c2ccc(F)cc2)c(=O)c1C(=O)Nc1ccc(Oc2ccnc(N)c2Cl)c(F)c1	1.04 ± 0.03
CCn1cc(-c2ccnc3[nH]c(-c4cccc(CN(C)C)c4)cc23)c(-c2ccc(NC(=O)N(C)C)cc2)n1	1.014 ± 0.0061
Cc1nc(Nc2n[nH]c3c2CN(C(=O)N[C@H](CN(C)C)c2ccccc2)C3(C)C)c2sccc2n1	0.789 ± 0.037
CNC[C@H](O)c1cccc(O)c1 [Phenylephrine HCl]	1.119 ± 0.0098
O=S(=O)(NCCNCC=Cc1ccc(Br)cc1)c1cccc2cnccc12	1.14 ± 0.018
CC(C)C[C@H](NC(=O)CNC(=O)c1cc(Cl)ccc1Cl)B(O)O	0.341 ± 0.023
N#C[C@@H]1CCCN1C(=O)CNC12CC3CC(CC(O)(C3)C1)C2 [Vildagliptin (LAF-237)]	0.7629 ± 0.0045
CCN(CC)CCN(Cc1ccc(-c2ccc(C(F)(F)F)cc2)cc1)C(=O)Cn1c(SCc2ccc(F)cc2)nc(=O)c2c1CCC2	1.03 ± 0.043
CNC(=C[N+](=O)[O-])NCCSCc1ccc(CN(C)C)o1 [Ranitidine]	1.05 ± 0.06
C=CCc1ccc(O)c(-c2ccc(O)c(CC=C)c2)c1 [Honokiol]	0.933 ± 0.013
COc1cc2c(cc1OC)-c1cc3ccc(OC)c(OC)c3c[n+]1CC2 [Palmatine chloride]	0.9392 ± 0.0029
Cc1cc(N2CCOCC2)ccc1Nc1nc(NC2CCCCC2)c2[nH]cnc2n1	1.098 ± 0.0034
O=C(O)c1ccc(Nc2ncc3c(n2)-c2ccc(Cl)cc2C(c2c(F)cccc2F)=NC3)cc1	1.22 ± 0.016
